The list shows a part of the results.

This passage reports binding signal (PBM z-score against 500 random probes) results from paper PMC6555819.

The first assay has as its target T1, RARg (Homo sapiens) (UniProt P13631).
T1 sequence: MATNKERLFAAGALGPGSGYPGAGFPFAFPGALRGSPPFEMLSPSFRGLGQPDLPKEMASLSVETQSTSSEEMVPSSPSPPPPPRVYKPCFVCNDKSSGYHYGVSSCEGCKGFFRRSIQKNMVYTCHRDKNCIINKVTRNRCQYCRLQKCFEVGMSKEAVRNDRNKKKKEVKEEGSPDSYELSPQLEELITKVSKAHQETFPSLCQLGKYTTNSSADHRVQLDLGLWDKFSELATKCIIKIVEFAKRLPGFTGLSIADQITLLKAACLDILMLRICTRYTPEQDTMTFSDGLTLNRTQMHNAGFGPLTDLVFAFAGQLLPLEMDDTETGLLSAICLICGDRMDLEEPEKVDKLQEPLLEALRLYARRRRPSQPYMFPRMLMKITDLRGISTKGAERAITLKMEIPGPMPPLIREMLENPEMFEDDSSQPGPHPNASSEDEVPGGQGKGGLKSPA
To be noted: 270 nM, no RXRa, PBS pH 7.4, 2% milk, 0.02% Triton X-100, 1 mM DTT, BSA, 0.4 mg/ml salmon testes DNA; double strand, one strand shown.
For “GCTACACTCTCCCAAGACTAAACCAGGAAGAAGTTGGCGATTGACAGCGTAGAATGAAGG”, the binding signal (PBM z-score against 500 random probes) turned out to be 0.5.
For “GCAGAAGAAGACCAAAGTATTCCCTCACTGCCTATGGCGATTGACAGCGTAGAATGAAGG”, the binding signal (PBM z-score against 500 random probes) was -0.31.
On to “GCGCATGCCACAGGACTGGTAGGCAGCTCCATCTGCGCGATTGACAGCGTAGAATGAAGG”, for which the binding signal (PBM z-score against 500 random probes) is -0.87.
“GCTTTCTTTCTCTCTTGTCTGATTGCTCTGGCTAGAGCGATTGACAGCGTAGAATGAAGG” showed a binding signal (PBM z-score against 500 random probes) of -1.24.
Sequence “GCCCTAGTTGGACCTGTGGGAAGGGCACTACTGTTCGCGATTGACAGCGTAGAATGAAGG” returned a binding signal (PBM z-score against 500 random probes) of -0.35.
In the case of “GCGCAGGAGAATCAGGCAGGGAGGTTGCAGTGAGCCGCGATTGACAGCGTAGAATGAAGG”, the binding signal (PBM z-score against 500 random probes) was -0.96.
“GCAACATTTCAGTATACTTTCTAGCAACTCTGGGTAGCGATTGACAGCGTAGAATGAAGG” had a binding signal (PBM z-score against 500 random probes) of 0.26.
In turn, “GCGCAGGAGACTCACTTGTGCATGCAGGGTTGAGGCGCGATTGACAGCGTAGAATGAAGG” registered a binding signal (PBM z-score against 500 random probes) of -0.79.
“GCATCCCTGCAATGGCCTGCAAAGTTACAGGTTGCAGCGATTGACAGCGTAGAATGAAGG” showed a binding signal (PBM z-score against 500 random probes) of -0.5.
“GCTAGTCCAGCTGGCTGGAGACTCATGGAAGAACAGGCGATTGACAGCGTAGAATGAAGG” came in with a binding signal (PBM z-score against 500 random probes) of 0.09.
As for “GCAAGAACCAGTGGATTCATAAGGGTGACAGTTCAGGCGATTGACAGCGTAGAATGAAGG”, the binding signal (PBM z-score against 500 random probes) is 0.19.
On to “GCACAATCTCAGCTCACTGCAAAGTTCGCCTTCCAGGCGATTGACAGCGTAGAATGAAGG”, for which the binding signal (PBM z-score against 500 random probes) was -0.06.
On the same count and under the same terms, the figure for “GCTAGGAATGTGAGTTTCTCTAAGTTCTATTCCTGGGCGATTGACAGCGTAGAATGAAGG” is 0.34.
Consider “GCCAAGGCAGCCAGAACTGATGATTGCACTGTGTGGGCGATTGACAGCGTAGAATGAAGG”, for which the binding signal (PBM z-score against 500 random probes) was -0.43.

In a further assay the target is T2, THRa (Homo sapiens) (UniProt P10827).
T2 sequence: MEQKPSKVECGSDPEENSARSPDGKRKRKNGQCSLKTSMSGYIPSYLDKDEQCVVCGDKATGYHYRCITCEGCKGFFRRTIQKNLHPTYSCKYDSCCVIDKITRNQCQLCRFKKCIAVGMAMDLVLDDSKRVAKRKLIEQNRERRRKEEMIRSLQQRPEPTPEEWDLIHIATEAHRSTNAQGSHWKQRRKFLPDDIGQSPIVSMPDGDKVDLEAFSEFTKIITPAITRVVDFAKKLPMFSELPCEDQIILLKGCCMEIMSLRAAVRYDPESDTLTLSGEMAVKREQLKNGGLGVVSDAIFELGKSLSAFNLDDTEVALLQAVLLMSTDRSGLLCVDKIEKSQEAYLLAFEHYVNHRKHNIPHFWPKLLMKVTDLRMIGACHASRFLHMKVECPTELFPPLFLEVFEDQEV
To be noted: 90 nM, no RXRa, PBS pH 7.4, 2% milk, 0.02% Triton X-100, 1 mM DTT, BSA, 0.4 mg/ml salmon testes DNA; double strand, one strand shown.
On to “GCACTATCTTGTGTCTCATCTGAGACATAGATGGATGCGATTGACAGCGTAGAATGAAGG”, for which the binding signal (PBM z-score against 500 random probes) is -1.15.
On the same count and under the same terms, with “GCATGGTGATGAAAGCAAAGGAGTAATGTTTCTGTGGCGATTGACAGCGTAGAATGAAGG” the figure was -0.08.
On the same count and under the same terms, the figure for “GCCAGGGAGAGAGCCTTGCAAAGATGGAACAATCAGGCGATTGACAGCGTAGAATGAAGG” is -0.23; for “GCATGTTAGAGCTCATGGAGAAGTGTCCTATGTGATGCGATTGACAGCGTAGAATGAAGG” it is -1.05.
Regarding “GCTAGTGAGTGAGTTCTCACAAGAAATGGTTGTTTAGCGATTGACAGCGTAGAATGAAGG”, the binding signal (PBM z-score against 500 random probes) is -0.3.
In turn, “GCGAGAATGGTCAGTACATTCAACCATGAATTCAAGGCGATTGACAGCGTAGAATGAAGG” gave a binding signal (PBM z-score against 500 random probes) of -0.41.
In turn, “GCGAGAACAGACTAACACACACACACACACACACACGCGATTGACAGCGTAGAATGAAGG” registered a binding signal (PBM z-score against 500 random probes) of 0.38.
Still for that read-out and setting: with “GCAAGCATAGCTTTGAGAGCAGTAAAGTGGTTCATTGCGATTGACAGCGTAGAATGAAGG” the figure was -1.27; with “GCGGGAGGTGTAAGGATCCTTGTGCACTGCTTGGGAGCGATTGACAGCGTAGAATGAAGG”, 0.49.
“GCGCCTAGCAGTCTATACAATTCTGAAGGATGCACCGCGATTGACAGCGTAGAATGAAGG”: the binding signal (PBM z-score against 500 random probes) is -0.66.
“GCCATGTGGACTTCATTCGACCCAGCTGAGAAGACTGCGATTGACAGCGTAGAATGAAGG” showed a binding signal (PBM z-score against 500 random probes) of 0.26.
For the sequence “GCGCAGGAGAATCAGGCAGGGAGGTTGCAGTGAGCCGCGATTGACAGCGTAGAATGAAGG”, the binding signal (PBM z-score against 500 random probes) is -0.35.
“GCCAAGACCATCCTGGCTAACACAGTGAAACCCTGTGCGATTGACAGCGTAGAATGAAGG” showed a binding signal (PBM z-score against 500 random probes) of -0.55.
The same measure, in the same setting: the figure for “GCGCCTTCTGCTACAGGGCAAAGGTGGCACACAAAGGCGATTGACAGCGTAGAATGAAGG” is -0.71; for “GCATGAGGTACTGATACATGCTACAATGTGTATGTAGCGATTGACAGCGTAGAATGAAGG” it is -0.8.
Still for that read-out and setting: with “GCCATCCTGTAAGACACTTCCTCTAAGAAATGGCTAGCGATTGACAGCGTAGAATGAAGG” the figure was 0.13.
